Results published in publication PMC5722342.
No constants are given. Whether binding was seen depends on the method and setting. In cells and extracts the contact can be indirect. Some binding calls cover weakened binding; strength is not graded here. One block for each substance: values may come before it.

Chains of the proteins cited; added tags and fusions are not shown.
UniProt Q9UKV5: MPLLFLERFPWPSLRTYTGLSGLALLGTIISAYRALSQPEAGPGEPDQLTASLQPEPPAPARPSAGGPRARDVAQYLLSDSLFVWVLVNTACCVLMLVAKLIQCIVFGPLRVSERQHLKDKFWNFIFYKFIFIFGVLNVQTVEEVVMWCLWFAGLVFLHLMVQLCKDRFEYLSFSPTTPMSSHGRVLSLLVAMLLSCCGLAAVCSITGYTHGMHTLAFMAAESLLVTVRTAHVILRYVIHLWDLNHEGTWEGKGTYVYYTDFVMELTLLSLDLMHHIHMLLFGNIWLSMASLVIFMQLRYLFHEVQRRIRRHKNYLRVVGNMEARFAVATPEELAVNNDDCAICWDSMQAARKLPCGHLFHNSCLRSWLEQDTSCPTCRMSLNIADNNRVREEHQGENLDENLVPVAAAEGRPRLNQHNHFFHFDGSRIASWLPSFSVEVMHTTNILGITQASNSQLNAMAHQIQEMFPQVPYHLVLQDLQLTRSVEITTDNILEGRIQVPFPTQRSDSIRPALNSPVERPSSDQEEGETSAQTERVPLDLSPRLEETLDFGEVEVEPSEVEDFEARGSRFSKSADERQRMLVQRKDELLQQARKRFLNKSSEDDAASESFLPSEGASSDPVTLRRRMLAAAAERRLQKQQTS
UniProt Q86TM6: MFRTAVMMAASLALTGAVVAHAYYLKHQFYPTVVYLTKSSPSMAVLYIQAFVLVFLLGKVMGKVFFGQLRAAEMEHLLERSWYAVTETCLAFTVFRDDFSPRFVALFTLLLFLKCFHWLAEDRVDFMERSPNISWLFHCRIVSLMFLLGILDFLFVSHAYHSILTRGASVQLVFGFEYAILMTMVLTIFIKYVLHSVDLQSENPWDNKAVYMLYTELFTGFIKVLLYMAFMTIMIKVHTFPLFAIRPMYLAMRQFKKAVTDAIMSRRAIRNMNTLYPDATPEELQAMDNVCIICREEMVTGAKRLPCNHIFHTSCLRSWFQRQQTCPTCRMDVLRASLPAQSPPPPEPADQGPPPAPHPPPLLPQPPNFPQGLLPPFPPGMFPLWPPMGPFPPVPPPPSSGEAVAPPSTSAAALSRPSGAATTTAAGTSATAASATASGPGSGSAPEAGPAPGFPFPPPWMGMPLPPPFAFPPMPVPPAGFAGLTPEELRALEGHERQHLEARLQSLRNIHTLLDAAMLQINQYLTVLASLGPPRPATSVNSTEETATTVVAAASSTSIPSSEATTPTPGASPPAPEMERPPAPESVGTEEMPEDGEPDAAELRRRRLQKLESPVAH
UniProt Q99942: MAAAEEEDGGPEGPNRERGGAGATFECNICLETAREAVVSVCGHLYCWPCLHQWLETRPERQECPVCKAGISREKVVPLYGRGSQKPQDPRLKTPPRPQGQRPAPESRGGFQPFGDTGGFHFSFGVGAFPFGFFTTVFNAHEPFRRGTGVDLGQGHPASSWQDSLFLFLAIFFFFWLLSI
UniProt Q7Z434: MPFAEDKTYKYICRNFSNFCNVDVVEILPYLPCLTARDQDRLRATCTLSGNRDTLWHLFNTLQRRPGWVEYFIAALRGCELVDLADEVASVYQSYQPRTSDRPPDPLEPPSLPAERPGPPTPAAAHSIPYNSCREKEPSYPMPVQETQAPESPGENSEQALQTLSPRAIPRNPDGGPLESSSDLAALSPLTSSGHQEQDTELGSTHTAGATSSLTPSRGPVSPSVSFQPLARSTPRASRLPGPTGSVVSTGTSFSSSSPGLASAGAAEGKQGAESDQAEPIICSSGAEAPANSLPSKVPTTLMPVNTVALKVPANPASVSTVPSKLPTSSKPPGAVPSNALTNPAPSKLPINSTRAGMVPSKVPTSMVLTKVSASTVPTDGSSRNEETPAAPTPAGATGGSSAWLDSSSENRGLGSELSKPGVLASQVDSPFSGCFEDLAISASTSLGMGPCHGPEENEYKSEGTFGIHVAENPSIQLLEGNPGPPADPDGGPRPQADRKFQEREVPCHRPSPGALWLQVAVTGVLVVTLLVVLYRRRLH

Key:
GP78 [1] = target: GP78 (UniProt Q9UKV5); experiment: co-IP; HEK293T cells transfected with the indicated plasmids, in some panels with shRNA against iRhom2, GP78 or RNF5; NP-40 lysis buffer; immunoprecipitation and immunoblot with the indicated antibodies (Fig 5C, 6A, 6C, 7A, 7E, 7F, 8A, S7 Fig)
GP78 [2] = target: GP78 (UniProt Q9UKV5); experiment: co-IP
HRD1 = HRD1 (UniProt Q86TM6); experiment: co-IP
VCP = VCP (UniProt P55072); experiment: co-IP
RNF5 = RNF5 (UniProt Q99942); experiment: co-IP; HEK293T cells transfected with the indicated plasmids, in some panels with shRNA against iRhom2, GP78 or RNF5; NP-40 lysis buffer; immunoprecipitation and immunoblot with the indicated antibodies (Fig 5C, 6A, 6C, 7A, 7E, 7F, 8A, S7 Fig)
[3] = target: RNF5 (endogenous) (human (endogenous in HEK293 and HEK293T)) (UniProt Q99942); experiment: co-IP

binding (GP78 [1]): binds
Substance: RNF5 (from UniProt Q99942 1-180)

binding (GP78 [2]): binds | binding (HRD1): binds | binding (VCP): binds | binding (RNF5): binds
Substance: VISA (from UniProt Q7Z434 1-540)

binding [3]: binds
Substance: VISA (endogenous) (from UniProt Q7Z434 1-540)
